The other results are listed elsewhere or left out.
How the values were obtained:
Experiment in all cases: glycan array binding signal (z-score within array); higher = stronger binding
Conditions in all cases: glycan notation: IUPAC condensed, linker removed
GlcNAc(b1-3)Gal(b1-4)Glc = molecular target: GlcNAc(b1-3)Gal(b1-4)Glc
Outline: (§1)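 From the Consortium for Functional Glycomics database, 3228 arrays were curated, keeping only those whose protein sequence was available. Binding is given as a within-array Z-score averaged across arrays sharing a protein sequence and across linkers. Negative Z-scores can be read as non-binding.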

[1] = molecular target: GlcNAc(b1-3)Gal(b1-4)GlcNAc
Outline: as §1

[2] = molecular target: GlcNAc(b1-3)Gal(b1-4)GlcNAc(b1-2)Man(a1-3)[GlcNAc(b1-3)Gal(b1-4)GlcNAc(b1-2)Man(a1-6)]Man(b1-4)GlcNAc(b1-4)GlcNAc
Outline: as §1

[3] = molecular target: GlcNAc(b1-3)Gal(b1-4)GlcNAc(b1-2)Man(a1-3)[GlcNAc(b1-3)Gal(b1-4)GlcNAc(b1-2)Man(a1-6)]Man(b1-4)GlcNAc(b1-4)[Fuc(a1-6)]GlcNAc
Outline: as §1

[4] = molecular target: GlcNAc(b1-3)Gal(b1-4)GlcNAc(b1-2)[GlcNAc(b1-3)Gal(b1-4)GlcNAc(b1-6)]Man(a1-6)[GlcNAc(b1-3)Gal(b1-4)GlcNAc(b1-2)Man(a1-3)]Man(b1-4)GlcNAc(b1-4)GlcNAc
Outline: as §1

[5] = molecular target: GlcNAc(b1-3)Gal(b1-4)GlcNAc(b1-3)Gal(b1-4)GlcNAc
Outline: as §1

[6] = molecular target: GlcNAc(b1-3)Gal(b1-4)GlcNAc(b1-3)Gal(b1-4)GlcNAc(b1-2)Man(a1-3)[GlcNAc(b1-3)Gal(b1-4)GlcNAc(b1-3)Gal(b1-4)GlcNAc(b1-2)Man(a1-6)]Man(b1-4)GlcNAc(b1-4)GlcNAc
Outline: as §1

[7] = molecular target: GlcNAc(b1-3)Gal(b1-4)GlcNAc(b1-3)Gal(b1-4)GlcNAc(b1-2)Man(a1-3)[GlcNAc(b1-3)Gal(b1-4)GlcNAc(b1-3)Gal(b1-4)GlcNAc(b1-2)Man(a1-6)]Man(b1-4)GlcNAc(b1-4)[Fuc(a1-6)]GlcNAc
Outline: as §1

[8] = molecular target: GlcNAc(b1-3)Gal(b1-4)GlcNAc(b1-3)Gal(b1-4)GlcNAc(b1-2)[GlcNAc(b1-3)Gal(b1-4)GlcNAc(b1-3)Gal(b1-4)GlcNAc(b1-6)]Man(a1-6)[GlcNAc(b1-3)Gal(b1-4)GlcNAc(b1-3)Gal(b1-4)GlcNAc(b1-2)Man(a1-3)]Man(b1-4)GlcNAc(b1-4)[Fuc(a1-6)]GlcNAc
Outline: as §1

[9] = molecular target: GlcNAc(b1-3)Gal(b1-4)GlcNAc(b1-3)Gal(b1-4)GlcNAc(b1-3)Gal(b1-4)GlcNAc(b1-2)Man(a1-3)[GlcNAc(b1-3)Gal(b1-4)GlcNAc(b1-3)Gal(b1-4)GlcNAc(b1-3)Gal(b1-4)GlcNAc(b1-2)Man(a1-6)]Man(b1-4)GlcNAc(b1-4)GlcNAc
Outline: as §1

[10] = molecular target: GlcNAc(b1-3)Gal(b1-4)GlcNAc(b1-3)Gal(b1-4)GlcNAc(b1-3)Gal(b1-4)GlcNAc(b1-2)Man(a1-3)[GlcNAc(b1-3)Gal(b1-4)GlcNAc(b1-3)Gal(b1-4)GlcNAc(b1-3)Gal(b1-4)GlcNAc(b1-2)Man(a1-6)]Man(b1-4)GlcNAc(b1-4)[Fuc(a1-6)]GlcNAc
Outline: as §1

[11] = molecular target: GlcNAc(b1-3)Gal(b1-4)GlcNAc(b1-3)Gal(b1-4)GlcNAc(b1-3)Gal(b1-4)GlcNAc(b1-2)[GlcNAc(b1-3)Gal(b1-4)GlcNAc(b1-3)Gal(b1-4)GlcNAc(b1-3)Gal(b1-4)GlcNAc(b1-6)]Man(a1-6)[GlcNAc(b1-3)Gal(b1-4)GlcNAc(b1-3)Gal(b1-4)GlcNAc(b1-3)Gal(b1-4)GlcNAc(b1-2)Man(a1-3)]Man(b1-4)GlcNAc(b1-4)[Fuc(a1-6)]GlcNAc
Outline: as §1

[12] = molecular target: GlcNAc(b1-3)Gal(b1-4)GlcNAc(b1-3)Gal(b1-4)GlcNAc(b1-3)Gal(b1-4)GlcNAc(b1-3)Gal(b1-4)GlcNAc(b1-2)Man(a1-3)[GlcNAc(b1-3)Gal(b1-4)GlcNAc(b1-3)Gal(b1-4)GlcNAc(b1-3)Gal(b1-4)GlcNAc(b1-3)Gal(b1-4)GlcNAc(b1-2)Man(a1-6)]Man(b1-4)GlcNAc(b1-4)GlcNAc
Outline: as §1

[13] = molecular target: GlcNAc(b1-3)Gal(b1-4)GlcNAc(b1-3)Gal(b1-4)GlcNAc(b1-3)Gal(b1-4)GlcNAc(b1-3)Gal(b1-4)GlcNAc(b1-2)Man(a1-3)[GlcNAc(b1-3)Gal(b1-4)GlcNAc(b1-3)Gal(b1-4)GlcNAc(b1-3)Gal(b1-4)GlcNAc(b1-3)Gal(b1-4)GlcNAc(b1-2)Man(a1-6)]Man(b1-4)GlcNAc(b1-4)[Fuc(a1-6)]GlcNAc
Outline: as §1

[14] = molecular target: GlcNAc(b1-3)Gal(b1-4)GlcNAc(b1-3)Gal(b1-4)GlcNAc(b1-3)Gal(b1-4)GlcNAc(b1-3)Gal(b1-4)GlcNAc(b1-2)[GlcNAc(b1-3)Gal(b1-4)GlcNAc(b1-3)Gal(b1-4)GlcNAc(b1-3)Gal(b1-4)GlcNAc(b1-3)Gal(b1-4)GlcNAc(b1-6)]Man(a1-6)[GlcNAc(b1-3)Gal(b1-4)GlcNAc(b1-3)Gal(b1-4)GlcNAc(b1-3)Gal(b1-4)GlcNAc(b1-3)Gal(b1-4)GlcNAc(b1-2)Man(a1-3)]Man(b1-4)GlcNAc(b1-4)[Fuc(a1-6)]GlcNAc
Outline: as §1

[15] = molecular target: GlcNAc(b1-3)Gal(b1-4)GlcNAc(b1-3)Gal(b1-4)GlcNAc(b1-3)GalNAc
Outline: as §1

[16] = molecular target: GlcNAc(b1-3)Gal(b1-4)GlcNAc(b1-3)GalNAc
Outline: as §1

[17] = molecular target: GlcNAc(b1-3)Gal(b1-4)GlcNAc(b1-3)[GlcNAc(b1-3)Gal(b1-4)GlcNAc(b1-3)]GalNAc
Outline: as §1

[18] = molecular target: GlcNAc(b1-3)Gal(b1-4)GlcNAc(b1-6)[Gal(b1-3)]GalNAc
Outline: as §1

[19] = molecular target: GlcNAc(b1-3)Gal(b1-4)GlcNAc(b1-6)[GlcNAc(b1-3)Gal(b1-3)]GalNAc
Outline: as §1

[20] = molecular target: GlcNAc(b1-3)Gal(b1-4)GlcNAc(b1-6)[GlcNAc(b1-3)]Gal(b1-4)GlcNAc
Outline: as §1

GlcNAc(b1-3)GalNAc = molecular target: GlcNAc(b1-3)GalNAc
Outline: as §1

GlcNAc(b1-3)Man = molecular target: GlcNAc(b1-3)Man
Outline: as §1

[21] = molecular target: GlcNAc(b1-3)[GlcNAc(b1-4)][GlcNAc(b1-6)]GlcNAc
Outline: as §1

[22] = molecular target: GlcNAc(b1-3)[GlcNAc(b1-6)]Gal(b1-4)GlcNAc
Outline: as §1

[23] = molecular target: GlcNAc(b1-3)[GlcNAc(b1-6)]GalNAc
Outline: as §1

[24] = molecular target: GlcNAc(b1-4)Gal(b1-4)GlcNAc
Outline: as §1

GlcNAc(b1-4)GlcNAc = molecular target: GlcNAc(b1-4)GlcNAc
Outline: as §1

[25] = molecular target: GlcNAc(b1-4)GlcNAc(b1-4)GlcNAc
Outline: as §1

[26] = molecular target: GlcNAc(b1-4)GlcNAc(b1-4)GlcNAc(b1-4)GlcNAc(b1-4)GlcNAc
Outline: as §1

[27] = molecular target: GlcNAc(b1-4)GlcNAc(b1-4)GlcNAc(b1-4)GlcNAc(b1-4)GlcNAc(b1-4)GlcNAc
Outline: as §1

[28] = molecular target: GlcNAc(b1-4)[GlcNAc(b1-6)]GalNAc
Outline: as §1

[29] = molecular target: GlcNAc(b1-6)Gal(b1-4)GlcNAc
Outline: as §1

GlcNAc(b1-6)GalNAc = molecular target: GlcNAc(b1-6)GalNAc
Outline: as §1

[30] = molecular target: GlcNAc6S(b1-3)Gal(b1-4)GlcNAc
Outline: as §1

Kdn(a2-3)Gal(b1-3)GalNAc = molecular target: Kdn(a2-3)Gal(b1-3)GalNAc
Outline: as §1

Kdn(a2-3)Gal(b1-3)GlcNAc = molecular target: Kdn(a2-3)Gal(b1-3)GlcNAc
Outline: as §1

B1: Si Bti9 1b-V5-his (Solanum lycopersicum) (protein)
chain: MQCNRGCDLALASFYVWRGSNLTLISEMFSTSIADIVSYNNRDNIPNQDSVIAGTRINIPFRCDCLNDGEVLGHAFPYRVKSGDTYDLVARNYSDLTTAQWMMKFNSYPENNIPNTVNLSVVVNCSCGNSDVSKDFGLFVTYPVRAEDNLTSVASAANVSEDIIRRYNPAAVSILDIGQGIIYIPGRDRNGNFPPLPTSTDGLSGGAKKGGRADPAFLYKVVINSKLEGKPIPNPLLGLDSTRTGHHHHHH
Q: Which “glycan array binding signal (z-score)” value (GlcNAc(b1-3)Gal(b1-4)Glc) does the source give for B1 here?
A: -0.248

Q: And the “glycan array binding signal (z-score)” value [1]?
A: -0.298

Q: And the “glycan array binding signal (z-score)” value [2]?
A: -0.252

Q: What about the “glycan array binding signal (z-score)” value [3] of the same binder?
A: 0.087

Q: What about the “glycan array binding signal (z-score)” value [4] of the same binder?
A: -0.015

Q: What about the “glycan array binding signal (z-score)” value [5] of the same binder?
A: -0.345

Q: What about the “glycan array binding signal (z-score)” value [6] of the same binder?
A: 0.248

Q: And the “glycan array binding signal (z-score)” value [7]?
A: 0.336

Q: What about the “glycan array binding signal (z-score)” value [8] of the same binder?
A: -0.178

Q: And the “glycan array binding signal (z-score)” value [9]?
A: 3.41

Q: And the “glycan array binding signal (z-score)” value [10]?
A: -0.116

Q: And the “glycan array binding signal (z-score)” value [11]?
A: -0.191

Q: What about the “glycan array binding signal (z-score)” value [12] of the same binder?
A: -0.24

Q: What about the “glycan array binding signal (z-score)” value [13] of the same binder?
A: -0.239

Q: What about the “glycan array binding signal (z-score)” value [14] of the same binder?
A: 0.862

Q: And the “glycan array binding signal (z-score)” value [15]?
A: -0.225

Q: And the “glycan array binding signal (z-score)” value [16]?
A: -0.146

Q: What about the “glycan array binding signal (z-score)” value [17] of the same binder?
A: -0.113

Q: What about the “glycan array binding signal (z-score)” value [18] of the same binder?
A: -0.323

Q: And the “glycan array binding signal (z-score)” value [19]?
A: -0.151

Q: And the “glycan array binding signal (z-score)” value [20]?
A: -0.14

Q: And the “glycan array binding signal (z-score)” value (GlcNAc(b1-3)GalNAc)?
A: -0.322

Q: What about the “glycan array binding signal (z-score)” value (GlcNAc(b1-3)Man) of the same binder?
A: -0.198

Q: And the “glycan array binding signal (z-score)” value [21]?
A: -0.337

Q: What about the “glycan array binding signal (z-score)” value [22] of the same binder?
A: -0.263

Q: What about the “glycan array binding signal (z-score)” value [23] of the same binder?
A: -0.256

Q: And the “glycan array binding signal (z-score)” value [24]?
A: -0.406

Q: And the “glycan array binding signal (z-score)” value (GlcNAc(b1-4)GlcNAc)?
A: -0.277

Q: And the “glycan array binding signal (z-score)” value [25]?
A: -0.35

Q: What about the “glycan array binding signal (z-score)” value [26] of the same binder?
A: 0.13

Q: What about the “glycan array binding signal (z-score)” value [27] of the same binder?
A: -0.156

Q: And the “glycan array binding signal (z-score)” value [28]?
A: 5.97

Q: And the “glycan array binding signal (z-score)” value [29]?
A: 0.267

Q: What about the “glycan array binding signal (z-score)” value (GlcNAc(b1-6)GalNAc) of the same binder?
A: -0.181

Q: And the “glycan array binding signal (z-score)” value [30]?
A: 0.015

Q: And the “glycan array binding signal (z-score)” value (Kdn(a2-3)Gal(b1-3)GalNAc)?
A: -0.196

Q: What about the “glycan array binding signal (z-score)” value (Kdn(a2-3)Gal(b1-3)GlcNAc) of the same binder?
A: -0.236

— the supplement of paper PMC8728848
